Screen size: about 350,000 compounds; about 9,900 (2.8%) were called active. The inconclusive results got no clear call from the source; some entries with a clear call stand among them for comparison. The call rests on the fitted dose curve; in most records, active means well fitted activation curve with a large enough effect; inconclusive means small, poorly fitted or top-dose-only effect; inactive means no such curve, though single readings can be large or run the other way. Potencies of inconclusive entries are left out as doubtful fits.
Assay: A quantitative high throughput screen for small molecules that induce DNA re-replication in MCF 10a normal breast cells. Further: nearly all actives have a fitted effect of over 50% in size. On activity, positive = re-replication: % of control where 0% means no effect.
Settings: MCF 10A DNA re-replication, Hoechst nuclear intensity, 48 h; activity, positive = re-replication: at 46.1 µM (top of the series)
Potency means the concentration at half of the fitted maximal effect; tags describe the fitted curve by direction and shape.

Structure (SMILES) | activity, positive = re-replication | Potency
Cc1ccc(C)c(S(=O)(=O)N2CCN(C(=O)CCNS(=O)(=O)c3ccccc3)CC2)c1 | inactive: 9.2% | 
COCCNCCCCOc1c(Cl)cc(C)cc1Br |  | inconclusive [activator, partial curve, poor fit]
CCn1c(C(=O)N2CCCC(C(=O)NCCCc3ccccc3)C2)cc2sccc21 (stereo unspecified) |  | inconclusive [activator, partial curve, poor fit]
O=C(N/N=C/c1ccc(O)cc1)c1[nH]c2ccc(Br)cc2c1-c1ccccc1 |  | inconclusive [activator, full curve, poor fit]
O=C(Nc1ccc(CN2CCCCC2)cc1)Nc1ccccc1Cl | inactive: 17.7% | 
COc1ccc(-c2cc(-c3ccccc3)nc(N)n2)c(O)c1 | inactive: 13.9% | 
Cc1cccc2c1N(CCCOc1ccc(C(C)(C)C)cc1)C(=O)C2=O |  | inconclusive [activator, single point]
O=C(O)CN1CCN(c2ncc(C(F)(F)F)cc2Cl)CC1 | inactive: 2.53% | 
COc1ccc(/C=N/NC(=O)c2ccc(CSc3nc(C)cc(C)n3)cc2)c(OC)c1OC |  | inconclusive [activator, single point]
COc1ccc(CNC(=O)c2cccc(-c3ccc(C)c4ccccc34)n2)cc1 |  | inconclusive [activator, partial curve, poor fit]
CCOc1ccc(N=Nc2ccc(N)cc2N)cc1 | inactive: -3.77% | 
CCOc1ccccc1NC(=O)c1cc(C(=O)c2cc(OC)ccc2O)coc1=N |  | inconclusive [activator, single point]
O=C1NC(c2ccccc2OC(F)F)Oc2ccccc21 (stereo unspecified) |  | inconclusive [activator, single point]
COc1ccccc1Nc1ncc(C(=O)Nc2ccc(OC)c(OC)c2)c2ccccc12 | inactive: 1.74% | 
O=S(=O)(c1ccc(SCCOc2cccc(Br)c2)nc1)N1CCCC1 |  | inconclusive [activator, partial curve]
CCCSc1nnc(NC(=O)Nc2ccccc2)s1 |  | inconclusive [activator, single point]
CCOC(=O)c1c(NC(=O)C2=COCCO2)sc2c1CCN(C(=O)OC)C2 |  | inconclusive [activator, single point]
COc1ccccc1N1CCN(C(=O)c2sc3nc(C)nc(N4CCN(c5ccccn5)CC4)c3c2C)CC1 |  | inconclusive [activator, partial curve, poor fit]
CC(=O)Nc1ccc(NC(=O)C(C)OC(=O)C2CCCCC2)cc1 (stereo unspecified) | inactive: -0.862% | 
Cc1ccc(S(=O)(=O)N2CCC(=O)N(CCOC(=O)Nc3cccc(Cl)c3)CC2)cc1 | inactive: -1.26% | 
O=C(Nc1ccccc1N1CCOCC1)c1cc(-c2ccco2)nc2ccccc12 |  | inconclusive [activator, partial curve, poor fit]
CCCCN1C(=O)C(O)(CC(=O)c2ccccc2OC)c2ccccc21 (stereo unspecified) | inactive: 29.1% | 
Cc1cc(C)c(C(=O)c2ccccc2)c(C)c1 |  | inconclusive [activator, single point]

Structure (SMILES) | activity, positive = re-replication | Potency
CC(C)C(=O)NC(=S)Nc1ccc(S(=O)(=O)N(C)C)cc1 | inactive: 0.811% | 
Cc1cc(OCC(=O)NCCCN(C)C)cc(C)c1Br |  | inconclusive [activator, partial curve, poor fit]
COc1ccccc1C(c1nnnn1C1CCCC1)N1CCN2CCCC2C1 (stereo unspecified) |  | inconclusive [activator, partial curve, poor fit]
O=C(Nc1ccc(F)c([N+](=O)[O-])c1)C1CCCO1 (stereo unspecified) |  | inconclusive [activator, full curve, poor fit]
COc1ccccc1NC(=O)c1cc2c(CO)cnc(C)c2oc1=Nc1ccc(OC)c(OC)c1 | inactive: -3.65% | 
O=C(CSc1nnc(NC(=O)c2ccccc2F)s1)NCc1ccco1 | inactive: -1.32% | 
COc1ccc(-c2cc(C(=O)Nc3cccc(S(=O)(=O)NCc4ccco4)c3)c3ccccc3n2)cc1OC |  | active: 11.6 µM
N=C(N)SCCN | inactive: 6.09% | 
CCN(CC)CCNC(=O)c1nn(-c2ccc(Cl)cc2)c2c1CCc1cc(OC)ccc1-2 |  | inconclusive [activator, single point]
CCN(CC)c1ccc(/C=C(/C#N)c2nc3ccccc3[nH]2)c(OC(C)C)c1 |  | inconclusive [activator, single point]
CCCCN1CN(S(=O)(=O)c2ccc(OC)cc2)c2nc3ccccc3nc21 | inactive: -11% | 
CC(NCC(=O)NCCc1ccc(S(N)(=O)=O)cc1)c1ccc(F)cc1 (stereo unspecified) | inactive: -5.41% | 
CCSc1nc2sc3c(c2c(=O)n1-c1ccccc1)CCN(C)C3 |  | inconclusive [activator, single point]
CCOP(=O)(OCC)/C(=N/OC(=O)c1ccc(OC)cc1)C(N)=O |  | inconclusive [activator, full curve, poor fit]
COc1ccccc1C(=O)NNC(=O)c1ccc(Br)cc1 |  | inconclusive [activator, single point]
CCn1c(SCc2cccc(C)c2)nnc1-c1ccccc1 | inactive: 13.9% | 
O=C(/C=C/c1ccccc1)Nc1cccnc1Oc1ccccc1F | inactive: 4.71% | 
O=C(Nc1ccccc1C(=O)Nc1ccccc1C(=O)O)c1ccccc1 |  | inconclusive [activator, single point]
COc1ccc(S(=O)(=O)Nc2cccc(-c3ccc4nncn4n3)c2)cc1F |  | active: 5.8 µM
CCOC(=O)[C@H]1[C@H]2COc3ccc(C)cc3[C@@H]2N2C(=O)c3ccc(Cl)cc3NC(=O)[C@@]12C |  | inconclusive [activator, full curve, poor fit]
O=C(NC(=S)NCC1COc2ccccc2O1)c1ccccc1 (stereo unspecified) |  | inconclusive [activator, single point]
C/C(=N\NC(=O)c1cc(C)[nH]n1)c1ccc(-c2ccccc2)cc1 |  | inconclusive [activator, single point]
CC1(C)C(C=C(Cl)Cl)C1C(=O)N(Cc1ccccc1Cl)C1CCS(=O)(=O)C1 (stereo unspecified) | inactive: 9.14% | 
